Measured values from PubChem BioAssay (NCI).
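A five-concentration, 48-hour dose response in 96-well plates underlies each endpoint, interpolated linearly between surrounding concentrations. GI50 is the concentration that inhibits growth by half.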 Certain results were filed several times, with different values. They are shown here; other results are not. An entry can have further records. For part of these data: The tests behind the records often covered other concentration ranges, not given here; some values may only mark the edge of a range. Records carry a tag for their origin. A, B and so on number the origins entry by entry. For part of these data: The records of an entry are repeats (runs, samples, wells, individuals or studies).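 TGI denotes the concentration required for complete inhibition of growth.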

Key:
Assay in all cases: NCI tumour cell line growth inhibition, 48 h
OVCAR-4 ovarian = system: OVCAR-4 ovarian
KM20L2 colon = system: KM20L2 colon
UO-31 renal = system: UO-31 renal
HOP-92 NSCLC = system: HOP-92 NSCLC
M14 melanoma = system: M14 melanoma
SNB-75 CNS = system: SNB-75 CNS
KM12 colon = system: KM12 colon
SK-MEL-5 melanoma = system: SK-MEL-5 melanoma
SW-620 colon = system: SW-620 colon
T-47D breast = system: T-47D breast
OVCAR-8 ovarian = system: OVCAR-8 ovarian
CCRF-CEM leukemia = system: CCRF-CEM leukemia
HS 578T breast = system: HS 578T breast
RXF 393 renal = system: RXF 393 renal
786-0 renal = system: 786-0 renal
CAKI-1 renal = system: CAKI-1 renal
MOLT-4 leukemia = system: MOLT-4 leukemia
MCF7 breast = system: MCF7 breast
SK-MEL-2 melanoma = system: SK-MEL-2 melanoma
UACC-62 melanoma = system: UACC-62 melanoma
NCI-H23 lung = system: NCI-H23 lung
NCI/ADR-RES ovarian = system: NCI/ADR-RES ovarian
BT-549 breast = system: BT-549 breast
MDA-N = system: MDA-N
SF-295 CNS = system: SF-295 CNS
HCT-116 colon = system: HCT-116 colon
MDA-MB-435 = system: MDA-MB-435
NCI-H460 lung = system: NCI-H460 lung
COLO 205 colon = system: COLO 205 colon
MDA-MB-231 breast = system: MDA-MB-231 breast
SK-MEL-28 melanoma = system: SK-MEL-28 melanoma
U251 CNS = system: U251 CNS
K-562 leukemia = system: K-562 leukemia
RPMI-8226 leukemia = system: RPMI-8226 leukemia
DU-145 prostate = system: DU-145 prostate
SR leukemia = system: SR leukemia
OVCAR-3 ovarian = system: OVCAR-3 ovarian
SN12C renal = system: SN12C renal
NCI-H226 lung = system: NCI-H226 lung

CC(=O)OCC1OC(n2c(=S)n(-c3ccccc3)c(=O)c3cc(Br)cc(Br)c32)C(OC(C)=O)C(OC(C)=O)C1OC(C)=O (centres undefined)
TGI (OVCAR-4 ovarian): 8.37 µM [sample A, 1 test] and > 100 µM [sample B, 1 test]
GI50 (KM20L2 colon): 6.75 µM [sample A, 1 test] and > 100 µM [sample B, 1 test]

Nc1nc(=S)c2[nH]cnc2[nH]1
TGI (UO-31 renal): 17.4 µM, 35.7 µM, 722 nM [sample A] and 31.5 µM [sample B]
GI50 (HOP-92 NSCLC): 1.77 µM [sample A, 1 test] and 1.62 µM [sample A, mean of 2 tests] and 154 nM [sample B, 1 test]
TGI (M14 melanoma): 46.1 µM, 14.6 µM, 69.9 µM [sample A] and 6.05 µM [sample B]
GI50 (SNB-75 CNS): 1.04 µM [sample A, 1 test] and 4.25 µM [sample A, mean of 2 tests] and 405 nM [sample B, mean of 2 tests]
TGI (KM12 colon): 27.5 µM, 31.4 µM, 125 µM [sample A] and > 25.7 µM [sample B]
TGI (SK-MEL-5 melanoma): 18.9 µM, 16.9 µM, 31 µM [sample A] and 5.09 µM [sample B]
TGI (SW-620 colon): 141 µM, 3.19 µM [sample A] and > 100 µM [sample B]
TGI (T-47D breast): 34.6 µM, 108 µM, 47.6 µM [sample A] and 30.7 µM [sample B]
TGI (OVCAR-8 ovarian): 49.3 µM, 60.9 µM, 11.4 µM [sample A] and > 100 µM [sample B]
TGI (CCRF-CEM leukemia): 31 µM, 835 nM [sample A] and > 100 µM [sample B]
TGI (HS 578T breast): 81.3 µM, 147 µM, > 171 µM [sample A] and > 100 µM [sample B]
TGI (RXF 393 renal): 8.83 µM, 8.62 µM, 16.8 µM [sample A] and 5.08 µM [sample B]
TGI (786-0 renal): 108 µM, 39.1 µM [sample A] and 8.23 µM [sample B]
TGI (CAKI-1 renal): 1.9 µM, 19.7 µM, 49.2 µM [sample A] and 2.3 µM [sample B]
TGI (MOLT-4 leukemia): 17.3 µM and 739 nM
TGI (MCF7 breast): 6.22 µM, 57.6 µM, > 102 µM [sample A] and 22.5 µM [sample B]
TGI (SK-MEL-2 melanoma): 7.56 µM, 11.8 µM, > 180 µM [sample A] and 6.98 µM [sample B]
TGI (UACC-62 melanoma): 1.71 µM, 4.96 µM, > 49.3 µM [sample A] and 1.55 µM [sample B]
TGI (NCI-H23 lung): 28.6 µM, 24.7 µM, 10.2 µM [sample A] and > 35.7 µM [sample B]
TGI (NCI/ADR-RES ovarian): 14.1 µM, 44 µM, 15.5 µM [sample A] and > 59.5 µM [sample B]
TGI (BT-549 breast): 28.4 µM, 176 µM, 14.6 µM [sample A] and > 100 µM [sample B]
TGI (MDA-N): 6.18 µM, 29.8 µM, > 250 µM
TGI (SF-295 CNS): 177 µM, > 250 µM [sample A] and 909 nM [sample B]
TGI (HCT-116 colon): 16.2 µM, 16.8 µM, 1.68 µM [sample A] and 9.03 µM [sample B]
TGI (MDA-MB-435): 10.5 µM, 39.1 µM, 2.18 µM [sample A] and 9.8 µM [sample B]

C=C(Cl)[C@@](Cl)(CBr)CC[C@@H](Br)C(C)(C)Cl
TGI (NCI-H460 lung): 4.39 µM and 210 nM
TGI (COLO 205 colon): > 100 µM and 1.5 µM
TGI (SNB-75 CNS): 19.2 µM and 885 nM
TGI (MDA-MB-231 breast): 50.3 µM and 568 nM
TGI (SW-620 colon): > 100 µM and 731 nM
TGI (OVCAR-8 ovarian): 21.6 µM and 1.17 µM
TGI (SK-MEL-28 melanoma): > 100 µM and 1.47 µM
TGI (NCI/ADR-RES ovarian): 24.4 µM and 1.2 µM
TGI (MDA-N): 20.5 µM and 1.19 µM
TGI (U251 CNS): 23.5 µM and 333 nM

CC(C)=CCCC1(C)C2COC(=O)C21 (centres undefined)
GI50 (K-562 leukemia): > 100 µM [sample A, 1 test] and 5.89 µM [sample B, 1 test]
GI50 (RPMI-8226 leukemia): > 100 µM [sample A, 1 test] and 490 nM [sample B, 1 test]

Cc1ccnc(Nc2ccc([N+](=O)[O-])c(NCCN3CCOCC3)n2)c1
TGI (KM12 colon): 434 nM and 14.5 µM
GI50 (SK-MEL-28 melanoma): 179 nM and 12.7 µM
TGI (DU-145 prostate): 454 nM and > 100 µM
TGI (HCT-116 colon): 278 nM and > 100 µM

O=NN(CCCl)C(=O)NC1CCCCC1
TGI (SR leukemia): 5.79 µM [1 test] and 88.7 µM [mean of 5 tests]

CCC(=C/[C@H](C)C/C=C/C(C)=C/[C@@H](C)C(=O)[C@@H](C)[C@H](O)[C@@H](C)CC)/C=C/[C@H]1CC=CC(=O)O1
TGI (UO-31 renal): 127 nM and 12 µM
TGI (OVCAR-3 ovarian): < 1.2 nM and 1.4 µM
TGI (KM12 colon): 5.13 µM and 162 nM
TGI (MDA-MB-231 breast): < 1.2 nM and 9.21 µM
TGI (MOLT-4 leukemia): < 1.2 nM and > 100 µM
TGI (SR leukemia): < 1.2 nM and > 100 µM
TGI (SN12C renal): 1.26 µM and 14.7 µM
TGI (K-562 leukemia): 1.58 µM and > 100 µM
TGI (RPMI-8226 leukemia): 23.5 nM and > 100 µM
TGI (NCI-H226 lung): 1.72 µM and 106 nM
